Consider 17 molecules from PubChem BioAssay AID1745853 (National Center for Advancing Translational Sciences (NCATS), 2022).

Assay in all cases: Primary Screen for Target Class Profiling of Small Molecule Inhibitors of Methyltransferases
Test [1] concerns the target Glycine N-methyltransferase (Homo sapiens) (UniProt Q14749). Particulars: purified enzyme, MTase-Glo SAH luminescence; measured here: GNMT inhibition; at 40 µM; stronger effect = lower value. The gist of the method:
(§1)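 Each enzyme was reacted with SAM and its substrate, with compounds tested once at 40 uM; SAH formed was read by MTase-Glo luminescence.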

Test [2] concerns the target Guanidinoacetate N-methyltransferase (Homo sapiens) (UniProt Q14353). Particulars: purified enzyme, MTase-Glo SAH luminescence; measured here: GAMT inhibition; at 40 µM; stronger effect = lower value. In short, it runs like this:
as §1

Test [3] concerns the target Histamine N-methyltransferase (Homo sapiens) (UniProt P50135). The note with it: purified enzyme, MTase-Glo SAH luminescence; measured here: HNMT inhibition; at 40 µM; stronger effect = lower value. In short, it runs like this: as §1
Test [4] concerns the target Nicotinamide N-methyltransferase (Homo sapiens) (UniProt P40261). Particulars: purified enzyme, MTase-Glo SAH luminescence; measured here: NNMT inhibition; at 40 µM; stronger effect = lower value. The gist of the method: as §1
Test [5] addresses Phenylethanolamine N-methyltransferase (Homo sapiens) (UniProt P11086). The note with it: purified enzyme, MTase-Glo SAH luminescence; measured here: PNMT inhibition; at 40 µM; stronger effect = lower value. The gist of the method: as §1

The other results are listed elsewhere or left out. These are further read-outs of the screen, such as a control signal, another cell line or another target. No call is given for them.
On the % scale 0 is the no-effect control and ±100 the full control effect.

Turning to `CN(C)c1nc2c(c(N3C[C@@H](CN4CCCC4)[C@@H](CO)C3)n1)CCCC2`, the activity change, negative = inhibition in test [1] was -0.204%; in test [2], 1.49%; in test [3] it was -76.3%; in test [4], -1.23%; in test [5] it was -0.777%.

Turning to `CCc1cc2c(cc3n2CC(C)(C(=O)NC2CCC(C)CC2)N(CCN(CC)CC)C3=O)s1` (stereo not drawn), the activity change, negative = inhibition was 2.94% in test [1]; 4.58% in test [2]; -3.25% in test [3]; 2.96% in test [4]; -2.35% in test [5].

As to `COCC(=O)N1CCC(C(=O)NC(C)c2ccc3c(c2)OCCCO3)CC1` (stereo not drawn), the activity change, negative = inhibition was -5.92% in test [1]; -10.5% in test [2]; -4.5% in test [3]; -17% in test [4]; -12.1% in test [5].

Regarding `Cc1ccccc1C(=O)N(C)C1CCCc2ccccc21` (stereo not drawn), the activity change, negative = inhibition in test [1] was -7.89%; in test [2], -0.519%; in test [3] it was -1.67%; in test [4], -13.4%; in test [5], -1.29%.

Regarding `Cc1nccn1CCC1CCN(c2nccc(-c3ccccn3)n2)CC1`, the activity change, negative = inhibition in test [1] was -8.12%; in test [2], 2.54%; in test [3] it was -69.6%; in test [4], -11.3%; in test [5], 0.818%.

As for `COc1cccc(Cn2nc3n(Cc4ccccc4)c(=O)c4ccc(C(=O)NCC(C)C)cc4n3c2=O)c1`, the activity change, negative = inhibition in test [1] turned out to be 0.788%; in test [2], 4.22%; in test [3] it was 2.18%; in test [4] it was 1.53%; in test [5], 2.93%.

`COc1ccc(N2CCN(C(=O)c3cccc(Nc4nc5ccccc5n5nnnc45)c3)CC2)cc1`: the activity change, negative = inhibition in test [1] was -8.01%; in test [2], 1.76%; in test [3], -8.17%; in test [4], 0.965%; in test [5] it was -10.8%.

As for `Nc1nc(Nc2ccccc2)nc2c1ncn2[C@@H]1O[C@H](CO)[C@@H](O)[C@H]1O`, the activity change, negative = inhibition was 4.46% in test [1]; 13.4% in test [2]; 10.5% in test [3]; -3.15% in test [4]; 3.26% in test [5].

Turning to `O=S1(=O)CCN(CN2CCS(=O)(=O)NC2)CN1`, the activity change, negative = inhibition in test [2] was 7.05%; in test [4], -6.88%; in test [5], 1.26%.

Take `Cc1ccc(Cn2c(=O)c3ccccc3n3c(=O)n(CC(=O)c4cccc(Cl)c4)nc23)cc1`: the activity change, negative = inhibition in test [1] is 6.84%; in test [2], 0.805%; in test [3] it was 9.91%; in test [4], -1.24%; in test [5] it was 3.79%.

For `O=[S+]1([O-])c2cccnc2OC(Cn2cccc2)CN1Cc1cccc(F)c1` (stereo not drawn), the activity change, negative = inhibition in test [1] was -0.828%; in test [2], -1.52%; in test [3], 0.112%; in test [4], -3.35%; in test [5], -1.97%.

In the case of `O=C(c1cnc(C23CC4CC(CC(C4)C2)C3)[nH]c1=O)N1C[C@H]2CNC[C@H]2C1`, the activity change, negative = inhibition in test [1] was -5.18%; in test [2] it was -10.4%; in test [3] it was -5.15%; in test [4], -14.4%; in test [5], -14.1%.

Regarding `CC(=O)N1CCCN(c2ncnc3c2CN(c2ccc([N+](=O)[O-])cc2)C(=O)N(C)C3)CC1`, the activity change, negative = inhibition in test [1] is -3.83%; in test [2], -5.68%; in test [3], -2.49%; in test [4], -8.21%; in test [5], -4.45%.

Take `N#Cc1cccc(-c2ccnc(N[C@H]3CO[C@H]4[C@@H]3OC[C@H]4OC(=O)NC3CCCCC3)n2)c1`: the activity change, negative = inhibition in test [1] is -1.24%; in test [2], -1%; in test [3], 0.516%; in test [4] it was 0.284%; in test [5], 3.27%.

On to `Cc1ccc(CCN2CCCCC23Cc2ccccc2CN([S+](C)(=O)[O-])C3)cc1` (stereo not drawn), for which the activity change, negative = inhibition in test [1] is -6.73%; in test [2], -0.904%; in test [3] it was -10.7%; in test [4], -5.04%; in test [5], -4.91%.

Consider `COc1ccc(NC(=O)N[C@H]2[C@H](O)[C@@H](Sc3ccccc3)[C@@H]3OC[C@H]2O3)cc1`, for which the activity change, negative = inhibition in test [1] is -7.39%; in test [2], -9.56%; in test [3], -3.43%; in test [4] it was -15.5%; in test [5], -7.57%.

Turning to `CSCC(=O)N1C[C@@H](NC(=O)NC(C)C)C[C@H]1C(=O)N[C@H](Cc1c[nH]c2ccccc12)C(N)=O`, the activity change, negative = inhibition in test [1] was -3.78%; in test [2] it was -2.38%; in test [3], 0.883%; in test [4], -1.56%; in test [5] it was -3.43%.
